This is one part of the list. Many values rest on one well or one pass, so single values are uncertain.
Key:
Assay in all cases: cell count relative to DMSO control; melanoma cells; higher = more viable cells
Settings in all cases: library dose: low library concentration; 72 h
WM115 = tested on: WM115
WM1716 = tested on: WM1716
WM1745 = tested on: WM1745
WM3526 = tested on: WM3526
WM3619 = tested on: WM3619
WM451Lu = tested on: WM451Lu
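Note: cell number obtained by counting DAPI-stained nuclei in high-throughput microscope images with image analysis software, screen run in 1,536-well plates.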

| Compound | cell count (WM115) | cell count (WM1716) | cell count (WM1745) | cell count (WM3526) | cell count (WM3619) | cell count (WM451Lu) |
| --- | --- | --- | --- | --- | --- | --- |
| Cn1cc(C2=C(c3cn(C4CCN(Cc5ccccn5)CC4)c4ccccc34)C(=O)NC2=O)c2ccccc21 [Enzastaurin] + C=CCn1c(=O)c2cnc(Nc3ccc(N4CCN(C)CC4)cc3)nc2n1-c1cccc(C(C)(C)O)n1 [MK1775] (first compound 0.8 µM, partner dose 0.02 µM) | 93.7% | 86.3% | 49.5% | 89.7% | 48.1% | 114% |
| C[As](C)SC[C@H](NC(=O)CC[C@H](N)C(=O)O)C(=O)NCC(=O)O [Darinaparsin] + N#Cc1c(O)c2c(-c3ccc(-c4ccccc4O)cc3)csc2[nH]c1=O [A769662] (first compound 0.4 µM, partner dose 2 µM) | 99.4% | 94.5% | 92.1% | 90.2% | 82% | 102% |
| C[As](C)SC[C@H](NC(=O)CC[C@H](N)C(=O)O)C(=O)NCC(=O)O [Darinaparsin] + Cn1c(Nc2ccc(C(F)(F)F)cc2)nc2cc(Oc3ccnc(-c4ncc(C(F)(F)F)[nH]4)c3)ccc21 [CHIR265] (first compound 0.4 µM, partner dose 0.08 µM) | 53.6% | 85.3% | 73% | 50.1% | 68% | 85.2% |
| C[As](C)SC[C@H](NC(=O)CC[C@H](N)C(=O)O)C(=O)NCC(=O)O [Darinaparsin] + O=C(CCCCCCC(=O)Nc1ccccc1)NO [vorinostat] (first compound 0.4 µM, partner dose 0.08 µM) | 107% | 112% | 120% | 96.6% | 104% | 80.3% |
| Cn1cc(C2=C(c3cn(C4CCN(Cc5ccccn5)CC4)c4ccccc34)C(=O)NC2=O)c2ccccc21 [Enzastaurin] + NC1(c2ccc(-c3nc4ccn5c(=O)[nH]nc5c4cc3-c3ccccc3)cc2)CCC1 [MK2206] (first compound 0.8 µM, partner dose 0.4 µM) | 98.6% | 101% | 81.2% | 94.5% | 78.2% | 120% |
| C[As](C)SC[C@H](NC(=O)CC[C@H](N)C(=O)O)C(=O)NCC(=O)O [Darinaparsin] + O=C(Oc1ccc([N+](=O)[O-])cc1)N1CCC(C(O)(c2ccc3c(c2)OCO3)c2ccc3c(c2)OCO3)CC1 [JZL184] (first compound 0.4 µM, partner dose 1 µM) | 88.6% | 94.6% | 85.5% | 81.4% | 105% | 90.4% |
| C[C@]12O[C@H](C[C@]1(O)CO)n1c3ccccc3c3c4c(c5c6ccccc6n2c5c31)CNC4=O [Lestaurtinib] + CCc1ccc(CCOc2ccc(CC3SC(=O)NC3=O)cc2)nc1 [pioglitazone] (first compound 0.004 µM, partner dose 2 µM) | 90.6% | 96.6% | 92% | 60.9% | 95.6% | 80.3% |
| C[As](C)SC[C@H](NC(=O)CC[C@H](N)C(=O)O)C(=O)NCC(=O)O [Darinaparsin] + COc1cc2ncnc(Nc3ccc(Oc4ccccc4)cc3)c2cc1OC [SrcI1] (first compound 0.4 µM, partner dose 2 µM) | 99.4% | 127% | 81.5% | 101% | 113% | 113% |
| C[As](C)SC[C@H](NC(=O)CC[C@H](N)C(=O)O)C(=O)NCC(=O)O [Darinaparsin] + Cn1cc(/C=C2\C(=O)Nc3cccnc32)c2ccccc21 [GW441756] (first compound 0.4 µM, partner dose 0.4 µM) | 86.8% | 116% | 95.6% | 81.8% | 121% | 110% |
| Cn1cc(C2=C(c3cn(C4CCN(Cc5ccccn5)CC4)c4ccccc34)C(=O)NC2=O)c2ccccc21 [Enzastaurin] + COC(=O)c1sccc1S(=O)(=O)Nc1ccc(Nc2ccccc2)cc1OC [GSK0660] (first compound 0.8 µM, partner dose 1 µM) | 122% | 113% | 88.8% | 90.6% | 157% | 112% |
| Cn1cc(C2=C(c3cn(C4CCN(Cc5ccccn5)CC4)c4ccccc34)C(=O)NC2=O)c2ccccc21 [Enzastaurin] + COc1cc2c(Oc3ccc4[nH]c(C)cc4c3F)ncnc2cc1OCCCN1CCCC1 [cediranib] (first compound 0.8 µM, partner dose 0.4 µM) | 109% | 86.2% | 79.8% | 105% | 102% | 138% |
| Cn1cc(C2=C(c3cn(C4CCN(Cc5ccccn5)CC4)c4ccccc34)C(=O)NC2=O)c2ccccc21 [Enzastaurin] + COc1ccc(COc2ccc(Cc3cnc(N)nc3N)cc2OC)cc1 [GW2580] (first compound 0.8 µM, partner dose 1 µM) | 121% | 104% | 81.8% | 107% | 94.7% | 119% |
| C[C@]12O[C@H](C[C@]1(O)CO)n1c3ccccc3c3c4c(c5c6ccccc6n2c5c31)CNC4=O [Lestaurtinib] + CC(C)C[C@H](NC(=O)[C@H](Cc1ccccc1)NC(=O)c1cnccn1)B(O)O [Bortezomib] (first compound 0.004 µM, partner dose 0.001 µM) | 87.3% | 38.4% | 81% | 95% | 55.4% | 88.9% |
| Cn1cc(C2=C(c3cn(C4CCN(Cc5ccccn5)CC4)c4ccccc34)C(=O)NC2=O)c2ccccc21 [Enzastaurin] + CCCS(=O)(=O)Nc1ccc(F)c(C(=O)c2c[nH]c3ncc(Cl)cc23)c1F [PLX4720] (first compound 0.8 µM, partner dose 0.08 µM) | 123% | 94.9% | 107% | 114% | 83% | 112% |
| C[C@]12O[C@H](C[C@]1(O)CO)n1c3ccccc3c3c4c(c5c6ccccc6n2c5c31)CNC4=O [Lestaurtinib] + Nc1cccc2c1CN(C1CCC(=O)NC1=O)C2=O [lenalidomide] (first compound 0.004 µM, partner dose 1 µM) | 98% | 100% | 103% | 92.2% | 102% | 101% |
| N.N.[Cl][Pt][Cl] [cisplatin] + OCc1c[nH]c2ccccc12 [Indole-3-carbinol] (first compound 1.6 µM, partner dose 0.8 µM) | 107% | 98.1% | 105% | 94.8% | 93.1% | 92.6% |
| C[C@]12O[C@H](C[C@]1(O)CO)n1c3ccccc3c3c4c(c5c6ccccc6n2c5c31)CNC4=O [Lestaurtinib] + O=C(Oc1ccc([N+](=O)[O-])cc1)N1CCC(C(O)(c2ccc3c(c2)OCO3)c2ccc3c(c2)OCO3)CC1 [JZL184] (first compound 0.004 µM, partner dose 1 µM) | 89.4% | 97.9% | 93.9% | 64.6% | 113% | 88.7% |
| N.N.[Cl][Pt][Cl] [cisplatin] + Cn1cc(/C=C2\C(=O)Nc3cccnc32)c2ccccc21 [GW441756] (first compound 1.6 µM, partner dose 0.4 µM) | 86.5% | 89.5% | 96.9% | 79.3% | 80.6% | 69.7% |
| Cn1cc(C2=C(c3cn(C4CCN(Cc5ccccn5)CC4)c4ccccc34)C(=O)NC2=O)c2ccccc21 [Enzastaurin] + CNC(=O)c1cc(Oc2ccc(NC(=O)Nc3ccc(Cl)c(C(F)(F)F)c3)cc2)ccn1 [sorafenib] (first compound 0.8 µM, partner dose 0.4 µM) | 98.5% | 90% | 96.3% | 97.2% | 104% | 110% |
| C[C@]12O[C@H](C[C@]1(O)CO)n1c3ccccc3c3c4c(c5c6ccccc6n2c5c31)CNC4=O [Lestaurtinib] + CNC(=O)c1cc(Oc2ccc(NC(=O)Nc3ccc(Cl)c(C(F)(F)F)c3)cc2)ccn1 [sorafenib] (first compound 0.004 µM, partner dose 0.4 µM) | 98% | 106% | 86.7% | 89.3% | 89% | 80.6% |
| C[C@]12O[C@H](C[C@]1(O)CO)n1c3ccccc3c3c4c(c5c6ccccc6n2c5c31)CNC4=O [Lestaurtinib] + COc1ccc(-c2ccc3c(N4CCOCC4)nc(N4C[C@@H](C)O[C@@H](C)C4)nc3n2)cc1CO [KU0063794] (first compound 0.004 µM, partner dose 0.02 µM) | 87.9% | 102% | 94.1% | 66.1% | 83.9% | 97.2% |
| Cn1cc(C2=C(c3cn(C4CCN(Cc5ccccn5)CC4)c4ccccc34)C(=O)NC2=O)c2ccccc21 [Enzastaurin] + C#Cc1cccc(Nc2ncnc3cc(OCCOC)c(OCCOC)cc23)c1 [erlotinib] (first compound 0.8 µM, partner dose 0.8 µM) | 96.6% | 106% | 76.5% | 92.9% | 109% | 107% |
| Cn1cc(C2=C(c3cn(C4CCN(Cc5ccccn5)CC4)c4ccccc34)C(=O)NC2=O)c2ccccc21 [Enzastaurin] + Cc1cc(Nc2cc(N3CCN(C)CC3)nc(/C=C/c3ccccc3)n2)n[nH]1 [ENMD2076] (first compound 0.8 µM, partner dose 0.04 µM) | 103% | 115% | 91.5% | 108% | 115% | 109% |
| C[C@]12O[C@H](C[C@]1(O)CO)n1c3ccccc3c3c4c(c5c6ccccc6n2c5c31)CNC4=O [Lestaurtinib] + Oc1nc(-c2ccc(C(F)(F)F)cc2)nc2c1CSCC2 [XAV939] (first compound 0.004 µM, partner dose 2 µM) | 95.2% | 67.4% | 73.2% | 84.9% | 90.9% | 115% |
| N.N.[Cl][Pt][Cl] [cisplatin] + C/C(O)=C(\C#N)C(=O)Nc1cc(Br)ccc1Br [LFM-A13] (first compound 1.6 µM, partner dose 2 µM) | 99.1% | 94.3% | 95% | 81.6% | 82.8% | 99.8% |

Reference: the supplement of paper PMC4604168 (melanoma cell lines)
